Measurements from a collection of fitness landscapes (doi:10.1016/j.celrep.2020.107928).
The full ranking holds about 81,000 sequences; the median of “one-hybrid fitness for binding NBS DNA” is about -0.1, and the highest 2% start at about 0.36. Some of the results follow.

B1: Caulobacter ParB omega fusion; a variant is named by its letters at X, in order, B8GW30 (parent)
chain: MESVVVGEPGMSEGRRGLGRGLSALLGEVDAAPAQAPGEQLGGSREAPIEILQRNPDQPRRTFREEDLEDLSNSIREKGVLQPILVRPSPDTAGEYQIVAGERAWRAAQRAGLKTVPIMVRELDDLAVLEIGIIENVQRADLNVLEEALSYKVLMEKFERTQENIAQTIGKSXSHVANXMRLLXLPDEVQSYLVSGELTAXHARAIAAAADPVALAKQIIEGGLSVRETEALARKAPNLSAGKSKGGRPPRVKDTDTQALESDLSSVLGLDVSIDHRGSTGTLTITYATLEQLDDLCNRLTRGI

Variants of: B1
Test: one-hybrid fitness for binding NBS DNA (the Noc-binding site; scaled: cognate 1, non-cognate 0); higher = stronger binding
Conditions: with NBS DNA site
In short: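 Fitness is the rescaled log change in variant-to-wild-type read ratio, measured by Illumina sequencing of plasmids before and after bacterial one-hybrid selection. The scale puts cognate at 1 and non-cognate at 0. Selection of Caulobacter ParB libraries, four specificity codons randomised, took place in E. coli USO with a HIS3 reporter, site 19 bp from the promoter, over 48 hours at 37°C on M9-minus-histidine with 0.1 mM IPTG and 5 mM 3-AT.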

| Variant | one-hybrid fitness for binding NBS DNA |
| --- | --- |
| PILR | ≤ 0.2 |
| WNAR | ≤ 0.2 |
| LFKR | ≤ 0.2 |
| QQRG | 0.407 |
| VMTY | ≤ 0.2 |
| APFI | ≤ 0.2 |
| SWLC | ≤ 0.2 |
| TLET | ≤ 0.2 |
| EELY | ≤ 0.2 |
| KNNL | ≤ 0.2 |
| PALE | ≤ 0.2 |
| AACN | ≤ 0.2 |
| SMDM | ≤ 0.2 |
| SWDL | ≤ 0.2 |
| LPLS | ≤ 0.2 |
| LTRW | ≤ 0.2 |
| YCVR | ≤ 0.2 |
| QRMT | 0.729 |
| EKAS | ≤ 0.2 |
| PKSE | ≤ 0.2 |
| LDRF | ≤ 0.2 |
| WQTV | ≤ 0.2 |
| LWGF | ≤ 0.2 |
| ASIG | ≤ 0.2 |
| CITT | ≤ 0.2 |
| QCQV | ≤ 0.2 |

| Variant | one-hybrid fitness for binding NBS DNA |
| --- | --- |
| TYSI | ≤ 0.2 |
| DSNI | ≤ 0.2 |
| YYTS | ≤ 0.2 |
| HTGC | ≤ 0.2 |
| VERS | ≤ 0.2 |
| TPCC | ≤ 0.2 |
| KYMV | ≤ 0.2 |
| FHVK | ≤ 0.2 |
| LPCV | ≤ 0.2 |
| CRET | ≤ 0.2 |
| SEEM | ≤ 0.2 |
| RTSS | 0.475 |
| YALK | ≤ 0.2 |
| CSNK | ≤ 0.2 |
| QKNN | 0.203 |
| CLKM | ≤ 0.2 |
| GSKK | ≤ 0.2 |
| VFNS | ≤ 0.2 |
| PRSP | ≤ 0.2 |
| RPLD | ≤ 0.2 |
| LTVK | ≤ 0.2 |
| SKYS | ≤ 0.2 |
| RWIF | ≤ 0.2 |
| LLTW | ≤ 0.2 |
| YYSC | ≤ 0.2 |
| HLCG | ≤ 0.2 |

| Variant | one-hybrid fitness for binding NBS DNA |
| --- | --- |
| DGRW | ≤ 0.2 |
| VCCR | ≤ 0.2 |
| VTIC | ≤ 0.2 |
| GGSV | ≤ 0.2 |
| KAPL | ≤ 0.2 |
| NGRV | ≤ 0.2 |
| TAWR | ≤ 0.2 |
| DVVG | ≤ 0.2 |
| LMAR | ≤ 0.2 |
| PNPP | ≤ 0.2 |
| VGPE | ≤ 0.2 |
| PPPP | ≤ 0.2 |
| SGWC | ≤ 0.2 |
| VAIV | ≤ 0.2 |
| WRIL | ≤ 0.2 |
| KTKH | 0.21 |
| CLQS | ≤ 0.2 |
| YNIV | ≤ 0.2 |
| PMKT | ≤ 0.2 |
| MPHG | ≤ 0.2 |
| ESLI | ≤ 0.2 |
| CIDG | ≤ 0.2 |
| TDMT | ≤ 0.2 |
| IRHS | ≤ 0.2 |
| HHAR | ≤ 0.2 |
| NRIG | ≤ 0.2 |

| Variant | one-hybrid fitness for binding NBS DNA |
| --- | --- |
| WVPG | ≤ 0.2 |
| SISA | ≤ 0.2 |
| SVHN | ≤ 0.2 |
| GSSI | ≤ 0.2 |
| ILFE | ≤ 0.2 |
| LVRE | ≤ 0.2 |
| WQLM | ≤ 0.2 |
| PSEV | ≤ 0.2 |
| WIVC | ≤ 0.2 |
| VRAP | ≤ 0.2 |
| QEQG | ≤ 0.2 |
| PITL | ≤ 0.2 |
| TAIR | ≤ 0.2 |
| WGTT | ≤ 0.2 |
| SGRV | ≤ 0.2 |
| CIYS | ≤ 0.2 |
| MLNV | ≤ 0.2 |
| YTHP | ≤ 0.2 |
| KSTM | ≤ 0.2 |
| KTHS | ≤ 0.2 |
| HHAF | ≤ 0.2 |
| RMNQ | ≤ 0.2 |
| QPSK | ≤ 0.2 |
| VVPC | ≤ 0.2 |
| VNTT | ≤ 0.2 |
| SRFS | ≤ 0.2 |

| Variant | one-hybrid fitness for binding NBS DNA |
| --- | --- |
| FKHR | ≤ 0.2 |
| CADN | ≤ 0.2 |
| NNFS | ≤ 0.2 |
| NNRS | ≤ 0.2 |
| QLTQ | ≤ 0.2 |
| QQFT | 0.435 |
| HAWY | ≤ 0.2 |
| AGIW | ≤ 0.2 |
| LRFS | ≤ 0.2 |
| ELCT | ≤ 0.2 |
| FWHS | ≤ 0.2 |
| GTKY | ≤ 0.2 |
| KYIS | ≤ 0.2 |
| IAAC | ≤ 0.2 |
| MRWL | ≤ 0.2 |
| RHPT | ≤ 0.2 |
| TDNM | ≤ 0.2 |
| RPYK | ≤ 0.2 |
| WQNE | ≤ 0.2 |
| AWFT | ≤ 0.2 |
| LHRM | ≤ 0.2 |
| RRIN | 0.206 |
| NLKI | ≤ 0.2 |
| LILW | ≤ 0.2 |
| RVFK | ≤ 0.2 |
| CKET | ≤ 0.2 |

| Variant | one-hybrid fitness for binding NBS DNA |
| --- | --- |
| NYSS | ≤ 0.2 |
| QEDG | ≤ 0.2 |
| IYDI | ≤ 0.2 |
| QIQS | 0.225 |
| HTNV | ≤ 0.2 |
| WTNT | ≤ 0.2 |
| ANTV | ≤ 0.2 |
| KEIV | ≤ 0.2 |
| CAGY | ≤ 0.2 |
| TLPK | ≤ 0.2 |
| WHLC | ≤ 0.2 |
| CVIV | ≤ 0.2 |
| VYVT | ≤ 0.2 |
| STAG | ≤ 0.2 |
| IYTS | ≤ 0.2 |
| MPHT | ≤ 0.2 |
| GVQC | ≤ 0.2 |
| KFDR | ≤ 0.2 |
| MSAP | ≤ 0.2 |
| GKSR | ≤ 0.2 |
| FSEF | ≤ 0.2 |
| AFPE | ≤ 0.2 |
| NSCL | ≤ 0.2 |
